These results are taken from the supplement of paper PMC9446081.

The whole screen tested about 39,000 compounds, of which about 220 (0.56%) showed activity. The list shows a part of the results.
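Also: static incubation at 37 °C against the wild-type strain, values averaged over two biological replicates.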

The test concerns Escherichia coli K-12 BW25113. The experiment in a line: relative growth (OD600 normalised to plate interquartile mean) (fraction); higher = less growth inhibition, active = 0.2 or less. The following applies: 50 µM; LB; incubation time: overnight (16-24 h).
Consider `C[C@H]1CN([C@@H](C)CO)S(=O)(=O)c2ccc(C#CCC3CCCC3)cc2O[C@@H]1CN(C)C(=O)c1cnccn1`, for which the relative growth is inactive: 1.04.
In the case of `CN1CCN(C(=O)C[C@@H]2CC[C@H]3[C@H](COc4ccc(NC(=O)c5cccs5)cc4C(=O)N3C)O2)CC1`, the relative growth was inactive: 0.979.
Consider `C[C@H]1CN([C@@H](C)CO)S(=O)(=O)c2ccc(C#CC3(O)CCCC3)cc2O[C@@H]1CN(C)C(=O)c1cccnc1`, for which the relative growth was inactive: 0.992.
Then `Cc1ccc(S(=O)(=O)N(C)C[C@H]2Oc3c(NS(=O)(=O)c4ccc(F)cc4)cccc3C(=O)N([C@@H](C)CO)C[C@@H]2C)cc1`, with inactive: 0.997; and `CN1CCN(C(=O)C[C@H]2CC[C@H]3[C@@H](COC[C@@H](O)CN3Cc3ccc4c(c3)OCO4)O2)CC1`, with inactive: 0.845.
Turning to `Cc1noc(C)c1NC(=O)Nc1ccc2c(c1)C(=O)N([C@H](C)CO)C[C@H](C)[C@H](CN(C)C(=O)Nc1ccc(F)cc1)OCCCC[C@H](C)O2`, the relative growth was inactive: 0.978.
For `C[C@@H]1CN([C@@H](C)CO)S(=O)(=O)c2ccc(C#CC3(O)CCCC3)cc2O[C@H]1CN(C)C(=O)Cc1ccncc1` the value was inactive: 1.03; for `Cc1ccc(S(=O)(=O)N(C)C[C@@H]2Oc3cc(Br)ccc3S(=O)(=O)N([C@H](C)CO)C[C@H]2C)cc1`, inactive: 1.03.
With `Cc1ccc(S(=O)(=O)Nc2ccc3c(c2)C(=O)N([C@H](C)CO)C[C@H](C)[C@H](CN(C)Cc2ccc(C(=O)O)cc2)OCCCC[C@@H](C)O3)cc1`, the relative growth was inactive: 1.
Take `COc1ccc(CN(C)C[C@H]2Oc3ccc(NC(=O)Cn4cnnn4)cc3C(=O)N([C@@H](C)CO)C[C@@H]2C)cc1`: the relative growth is inactive: 0.998.
`COc1ccc(NC(=O)N(C)C[C@@H]2Oc3c(NS(=O)(=O)c4cn(C)cn4)cccc3C(=O)N([C@@H](C)CO)C[C@@H]2C)cc1`: the relative growth was inactive: 0.998.
Turning to `C[C@H]1CN([C@@H](C)CO)S(=O)(=O)c2ccc(-c3ccncc3)cc2O[C@@H]1CN(C)C(=O)c1ccc2c(c1)OCO2`, the relative growth is inactive: 0.998.
As to `C[C@@H]1CN([C@H](C)CO)C(=O)c2c(c3ccccc3n2C)-c2ccccc2CO[C@@H]1CN(C)C(=O)c1ccc(F)cc1`, the relative growth was inactive: 1.01.
Take `C[C@H]1CN([C@@H](C)CO)C(=O)c2cc(-c3cccc(C(=O)N(C)C)c3)cnc2O[C@@H]1CN(C)S(=O)(=O)c1ccc(F)cc1`: the relative growth was inactive: 0.975.
For the compound `C[C@H]1CCCCO[C@@H](CN(C)S(=O)(=O)c2ccccc2)[C@@H](C)CN([C@@H](C)CO)C(=O)c2cc(NC(=O)c3ccccc3)ccc2O1`, the relative growth is inactive: 0.992.
As for `Cc1noc(C)c1NC(=O)N(C)C[C@@H]1Oc2ccc(NC(=O)C3CC3)cc2CC(=O)N([C@H](C)CO)C[C@H]1C`, the relative growth is inactive: 0.962.
As to `O=C(C[C@H]1C[C@H]2c3cc(NC(=O)Nc4ccc(C(F)(F)F)cc4)ccc3O[C@H]2[C@H](CO)O1)NCCc1ccccc1`, the relative growth is inactive: 1.02.
Then `COCC(=O)Nc1ccc2c(c1)C(=O)N(C)C[C@H](OC)[C@@H](C)CN(Cc1ccccc1F)[C@H](C)CO2`, with inactive: 0.991; and `Cc1cc(C(=O)Nc2cccc3c2O[C@H](CN(C)Cc2ccc(Oc4ccccc4)cc2)[C@@H](C)CN([C@@H](C)CO)C3=O)n(C)n1`, with inactive: 1.01; and `C[C@@H]1CN([C@@H](C)CO)C(=O)c2cc(N(C)C)ccc2O[C@H]1CN(C)S(C)(=O)=O`, with inactive: 0.985.
As to `CS(=O)(=O)N1C[C@H]2C[C@@H](F)[C@@H](O)[C@@H]2C1`, the relative growth was inactive: 1.
As to `C[C@@H]1CN([C@@H](C)CO)C(=O)c2cc(NS(=O)(=O)c3cn(C)cn3)ccc2O[C@H]1CN(C)Cc1ccc2c(c1)OCO2`, the relative growth is inactive: 1.02.
Regarding `CO[C@H]1CN(C)C(=O)c2ccc(NC(=O)CC(F)(F)F)cc2OC[C@@H](C)N(S(=O)(=O)c2cn(C)cn2)C[C@@H]1C`, the relative growth was inactive: 1.01.
As for `C[C@@H]1CN([C@H](C)CO)C(=O)c2cc(NC(=O)Nc3ccc(F)cc3)ccc2O[C@@H](C)CCCCO[C@H]1CN(C)C(=O)Nc1ccc(C(F)(F)F)cc1`, the relative growth is inactive: 1.
On to `C[C@@H]1CCCCO[C@@H](CN(C)C(=O)Cc2ccccc2)[C@@H](C)CN([C@H](C)CO)C(=O)c2cc(NC(=O)c3ccccc3)ccc2O1`, for which the relative growth was inactive: 0.995.
Then `Cc1noc(C)c1NC(=O)N(C)C[C@H]1Oc2ccc(NC(=O)Cn3cnnn3)cc2C(=O)N([C@@H](C)CO)C[C@@H]1C`, with inactive: 0.994.
For `O=C(NC[C@H]1CCCO1)c1ccc(/C=N/O)nc1` the value was inactive: 1.02; for `C[C@@H]1CN([C@H](C)CO)C(=O)c2cc(NC(=O)c3ccccc3)ccc2O[C@@H](C)CCCCO[C@@H]1CN(C)S(=O)(=O)c1ccc(F)cc1`, inactive: 1.03; for `CN1CCN(C(=O)C[C@H]2CC[C@@H]3[C@H](COc4ccc(NC(=O)c5cccs5)cc4C(=O)N3C)O2)CC1`, inactive: 0.984.
Take `COc1ccc(NC(=O)Nc2ccc3c(c2)C(=O)N([C@H](C)CO)C[C@H](C)[C@H](CN(C)S(=O)(=O)c2ccc(Cl)cc2)OCCCC[C@H](C)O3)cc1`: the relative growth was inactive: 1.04.
`COc1ccc(CN(C)C[C@H]2Oc3ccc(NC(=O)Nc4cccc5ccccc45)cc3C(=O)N([C@H](C)CO)C[C@H]2C)cc1`: the relative growth is inactive: 1.02.
For the compound `C[C@@H]1CN([C@H](C)CO)S(=O)(=O)c2ccc(C#Cc3ccc(F)cc3)cc2O[C@H]1CN(C)S(=O)(=O)c1cn(C)cn1`, the relative growth is inactive: 1.02.
Regarding `C[C@H]1CN([C@@H](C)CO)C(=O)c2cccc(NC(=O)c3nc4ccccc4s3)c2O[C@@H]1CN(C)Cc1ccc(Cl)c(Cl)c1`, the relative growth is inactive: 1.03.
For the compound `COc1ccc(NC(=O)N(C)C[C@@H]2OCCCC[C@@H](C)Oc3ccc(NC(=O)NC4CCCCC4)cc3C(=O)N([C@H](C)CO)C[C@@H]2C)cc1`, the relative growth was inactive: 0.97.
For `Cn1cnc(S(=O)(=O)N2C[C@H](O)COC[C@H]3O[C@@H](CC(=O)NCc4cc(F)cc(F)c4)CC[C@@H]32)c1` the value was inactive: 1.01; for `C[C@@H]1CN([C@@H](C)CO)C(=O)c2cc(NS(=O)(=O)c3ccc(Cl)cc3)ccc2O[C@@H](C)CCCCO[C@H]1CN(C)Cc1ccc(C(=O)O)cc1`, inactive: 1.04; for `C[C@H]1CN([C@@H](C)CO)C(=O)c2ccccc2-c2ccccc2CO[C@H]1CN(C)C(=O)Nc1cccc(C(F)(F)F)c1`, inactive: 0.985.
On to `CO[C@@H]1CN(C)C(=O)c2cc(NC(=O)C3CCOCC3)ccc2OC[C@@H](C)N(Cc2cccnc2)C[C@H]1C`, for which the relative growth was inactive: 0.985.
For `COc1ccccc1CNC(=O)C[C@H]1CC[C@H]2[C@@H](COC[C@H](O)CN2C(=O)Nc2ccc(Cl)cc2)O1` the value was inactive: 0.894; for `C[C@@H]1CN([C@@H](C)CO)C(=O)Cc2cc(NC(=O)CCN3CCOCC3)ccc2O[C@@H]1CN(C)S(=O)(=O)c1cn(C)cn1`, inactive: 1; for `CC(C)NC(=O)N(C)C[C@H]1Oc2ccc(NS(=O)(=O)c3ccc(Cl)cc3)cc2C(=O)N([C@H](C)CO)C[C@H]1C`, inactive: 1.03.
Then `COC(=O)C[C@@H]1CC[C@@H]2[C@H](COC[C@H](O)CN2S(=O)(=O)c2cn(C)cn2)O1`, with inactive: 0.992; and `COc1ccccc1CNC(=O)C[C@H]1C[C@@H]2c3cc(NC(=O)NC4CCCC4)ccc3O[C@@H]2[C@@H](CO)O1`, with inactive: 1.02; and `C[C@@H]1CN([C@@H](C)CO)C(=O)c2cc(NC(=O)CCC(F)(F)F)ccc2O[C@H]1CN(C)C(=O)Nc1ccc(C(F)(F)F)cc1`, with inactive: 0.969.
For `COc1ccc(S(=O)(=O)Nc2ccc3c(c2)C(=O)N([C@H](C)CO)C[C@H](C)[C@H](CN(C)Cc2ccc(Cl)c(Cl)c2)OCCCC[C@@H](C)O3)cc1`, the relative growth was inactive: 1.05.
As for `CC(C)c1cccc(NC(=O)C[C@H]2CC[C@H]3[C@@H](COc4ccc(NC(=O)c5ccc(C#N)cc5)cc4C(=O)N3C)O2)c1`, the relative growth was inactive: 0.994.
`CCCNC(=O)Nc1ccc2c(c1)OC[C@H](C)N(Cc1ccc(-c3ccccn3)cc1)C[C@@H](C)[C@H](OC)CN(C)C2=O`: the relative growth is inactive: 0.983.
For the compound `O=C(C[C@H]1C[C@@H]2c3cc(NS(=O)(=O)c4ccc(F)cc4)ccc3O[C@@H]2[C@@H](CO)O1)NCc1cccnc1`, the relative growth is inactive: 0.954.
With `C[C@@H]1CN([C@H](C)CO)C(=O)c2cc(C#CCN(C)C)cnc2O[C@@H]1CN(C)C(=O)c1cnccn1`, the relative growth was inactive: 1.02.
For the compound `C[C@H]1CCCCO[C@@H](CN(C)C(=O)Nc2ccc(C(F)(F)F)cc2)[C@@H](C)CN([C@@H](C)CO)C(=O)c2cc(NC(=O)C3CCCCC3)ccc2O1`, the relative growth was inactive: 1.
For the compound `COCCCNC(=O)[C@@]1(Sc2ccc(C)cc2)CC(=O)N(C2Cc3ccccc3C2)[C@@H]1c1ccc(CO)cc1I`, the relative growth is inactive: 1.02.
Regarding `COc1ccc(NC(=O)Nc2ccc3c(c2)C(=O)N([C@@H](C)CO)C[C@H](C)[C@H](CN(C)Cc2ccc(C(F)(F)F)cc2)OCCCC[C@H](C)O3)cc1`, the relative growth was inactive: 1.03.
Then `C[C@@H]1CN([C@@H](C)CO)C(=O)Cc2cc(NC(=O)Nc3ccc4c(c3)OCO4)ccc2O[C@@H]1CN(C)Cc1ccc(C(=O)Nc2ccccc2N)cc1`, with inactive: 0.978; and `CO[C@@H]1CN(C)C(=O)c2cc(NC(=O)Nc3ccccc3F)ccc2OC[C@H](C)N(Cc2ccccc2C(=O)O)C[C@H]1C`, with inactive: 0.979.
As to `C=CC[C@@H](CC(=O)N(CCO)Cc1ccccc1)C(=O)N[C@H](COC(=O)[C@H](CC=C)CC(=O)OC(C)(C)C)Cc1c[nH]c2ccccc12`, the relative growth is inactive: 1.09.
For `CC(=O)N(C)C[C@@H]1Oc2ncc(C#C[C@@H](C)O)cc2C(=O)N([C@H](C)CO)C[C@@H]1C` the value was inactive: 0.89.
